# Measured values from PMC4336329 (PLoS ONE, 2015).
# Out of some 310,000 compounds screened, about 14,000 (4.5%) showed an effect of 50% or more. The effect is printed as a negative number. The list shows a part of the results.
# Molecular target: human ether-à-go-go-related gene (hERG) potassium channel (human, UniProt Q12809)
# Experiment: primary screen, population patch clamp on CHO cells stably expressing hERG
# 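Further: peak tail current of the secondary pulse compared with the same well before compound.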
# Chain of human ether-à-go-go-related gene (hERG) potassium channel (Q12809 whole entry, looked up): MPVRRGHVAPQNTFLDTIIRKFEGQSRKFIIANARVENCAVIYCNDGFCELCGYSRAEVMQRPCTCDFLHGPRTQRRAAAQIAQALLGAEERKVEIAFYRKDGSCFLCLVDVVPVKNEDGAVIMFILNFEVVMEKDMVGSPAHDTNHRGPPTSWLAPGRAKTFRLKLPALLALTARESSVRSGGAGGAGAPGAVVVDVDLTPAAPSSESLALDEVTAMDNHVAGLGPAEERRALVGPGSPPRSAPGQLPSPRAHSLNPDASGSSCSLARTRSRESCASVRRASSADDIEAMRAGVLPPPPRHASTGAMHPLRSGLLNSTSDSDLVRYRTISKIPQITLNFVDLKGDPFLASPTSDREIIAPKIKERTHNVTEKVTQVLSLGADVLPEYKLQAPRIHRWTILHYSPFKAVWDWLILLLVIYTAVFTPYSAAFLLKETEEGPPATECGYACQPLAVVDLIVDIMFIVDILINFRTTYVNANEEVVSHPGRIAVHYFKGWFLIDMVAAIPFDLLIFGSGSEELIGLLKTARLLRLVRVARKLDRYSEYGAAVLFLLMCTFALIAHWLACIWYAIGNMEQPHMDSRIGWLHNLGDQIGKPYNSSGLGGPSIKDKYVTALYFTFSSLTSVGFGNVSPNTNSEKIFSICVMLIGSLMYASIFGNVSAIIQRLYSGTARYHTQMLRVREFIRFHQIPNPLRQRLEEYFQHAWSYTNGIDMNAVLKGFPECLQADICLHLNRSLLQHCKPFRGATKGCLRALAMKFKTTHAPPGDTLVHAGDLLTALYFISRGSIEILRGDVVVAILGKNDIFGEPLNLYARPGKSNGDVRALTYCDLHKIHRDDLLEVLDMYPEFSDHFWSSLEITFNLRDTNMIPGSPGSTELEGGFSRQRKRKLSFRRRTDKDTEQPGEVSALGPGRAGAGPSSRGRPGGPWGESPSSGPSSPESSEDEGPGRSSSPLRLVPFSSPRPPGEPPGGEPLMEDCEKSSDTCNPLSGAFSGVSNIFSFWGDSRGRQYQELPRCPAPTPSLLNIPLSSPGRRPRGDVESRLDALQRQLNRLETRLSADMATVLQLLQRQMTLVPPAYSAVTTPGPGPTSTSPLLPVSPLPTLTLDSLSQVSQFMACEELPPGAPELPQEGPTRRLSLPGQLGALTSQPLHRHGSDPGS
row,SMILES,"hERG current change (%, negative = inhibition) at 10uM [%]"
1,Cc1noc(/C=C/N(C)C)c1S(=O)(=O)N1CCCC(C(=O)NCc2ccc(Cl)cc2)C1 (stereo not drawn),1.22
2,CCCNC(=O)c1ccc2c(c1)nc(C)n2-c1cccc(C)c1,-34.8
3,O=C1C2C3C=CC(C3)C2C(=O)N1c1ccc(-c2nc3ccccc3c(=O)o2)cc1 (stereo not drawn),19.6
4,c1ccc(CCNc2ncnc3c2cnn3-c2ccccc2)cc1,-40.5
5,CCC(=O)N/C=C/n1cnc2cc(C(F)(F)F)ccc21,-15.1
6,COc1cc(C(=O)N2CCN(CC(O)COc3ccccc3)CC2)cc(OC)c1OC (stereo not drawn),4.32
7,O=C(NNC(=S)NC1CCCCC1)c1cccc(S(=O)(=O)Nc2ccccc2Cl)c1,13.1
8,COC(=O)c1cc(-c2ccc(S(=O)(=O)N3CCCC(C)C3)cc2)c(C(F)(F)F)s1 (stereo not drawn),-7.11
9,Cc1cc(Br)ccc1OCc1nc(-c2cccnc2)no1,14.4
10,Cc1nc(N2CCOCC2)[nH]c(=O)c1C,24.3
11,O=C(COC(=O)c1ccc(Br)o1)NCCc1ccccc1,4.67
12,CSc1ccc(CN(C)CC(=O)NC(=O)NCCC2=CCCCC2)cc1,-10
13,O=C(CCC(=O)OCC(=O)c1ccc([N+](=O)[O-])cc1)NC1CCCCC1,-0.724
14,COc1ccc(C(C(N)=O)c2ncc(C(F)(F)F)cc2Cl)cc1 (stereo not drawn),4.78
15,O=C(OCC(=O)N1CCN(c2cccc(Cl)c2)CC1)c1ccco1,-12
16,COc1cc(/C=C/C(=O)N(C)CC(=O)Nc2ccccc2Br)cc2c1OCCO2,0.127
17,CCN(CC)C(=O)c1ccc2nc(-c3ccccc3)c(-c3ccccc3)nc2c1,-2.32
18,Cc1cc(SCC(=O)N/N=C/c2ccc(O)cc2O)nc2ccccc12,9.64
19,O=C(NNC1CC(=O)N(c2ccccc2)C1=O)c1ccco1 (stereo not drawn),15.1
20,Cc1ccc(S(=O)(=O)N=C2SCCCS2)cc1,4.41
21,O=C1/C(=C/c2ccccc2)SC(=S)N1CCCC(=O)N1CCCCC1CCO (stereo not drawn),-1.99
22,CCOP(=O)(OCC)C(Nc1ccc([N+](=O)[O-])cc1)c1ccc(Cl)cc1 (stereo not drawn),-76
23,O=C(COc1ccc2ccc(=O)oc2c1)N1CCN(c2ccc(F)cc2)CC1,-31
24,COc1cc2nc(N(CCN(C)C)C(=O)c3ccc4ccccc4c3)sc2cc1OC.Cl,-40.8
